In a compilation of properties of binary mixtures (doi:10.1016/j.jct.2007.01.007):
The densities may have been worked out from excess volumes.

Assay: xn = mol fraction of the nth substance listed
Conditions: 298 K, 101 kPa

Structure (SMILES): CCCC[n+]1ccn(C)c1.F[B-](F)(F)F + O
- mass density (x1 = 0.0016): 1000.3 kg/m3
- mass density (x2 = 0.1641): 1195.3 kg/m3
- mass density (x2 = 0.1829): 1194.6 kg/m3
- mass density (x2 = 0.3722): 1185.6 kg/m3
- mass density (x2 = 0.4732): 1180.2 kg/m3
- mass density (x2 = 0.5927): 1169.7 kg/m3
- mass density (x2 = 0.599): 1168.4 kg/m3
- mass density (x2 = 0.601): 1168.2 kg/m3
- mass density (x2 = 0.6984): 1156.8 kg/m3
- mass density (x2 = 0.8398): 1125.6 kg/m3
- mass density (x2 = 0.8432): 1124.5 kg/m3
- mass density (x2 = 0.8448): 1124 kg/m3
- mass density (x2 = 0.8459): 1123.6 kg/m3
- mass density (x2 = 0.8763): 1111.1 kg/m3
- mass density (x2 = 0.8905): 1105.1 kg/m3
- mass density (x2 = 0.8907): 1105 kg/m3
- mass density (x2 = 0.8915): 1104.6 kg/m3
- mass density (x2 = 0.9412): 1069.9 kg/m3
- mass density (x2 = 0.9416): 1069.5 kg/m3
- mass density (x2 = 0.9417): 1069.4 kg/m3
- mass density (x2 = 0.9423): 1068.8 kg/m3
- mass density (x2 = 0.9501): 1064.2 kg/m3

Structure (SMILES): CCCC[n+]1ccn(C)c1C.F[B-](F)(F)F + O
- mass density (x1 = 0.0003): 997.7 kg/m3
- mass density (x1 = 0.0012): 999.4 kg/m3
- mass density (x1 = 0.0014): 999.9 kg/m3
- mass density (x1 = 0.0071): 1010.2 kg/m3
- mass density (x1 = 0.0184): 1027.7 kg/m3
- mass density (x1 = 0.0186): 1028.1 kg/m3
- mass density (x1 = 0.0188): 1028.3 kg/m3
- mass density (x2 = 0.3683): 1178.8 kg/m3
- mass density (x2 = 0.4407): 1173.7 kg/m3
- mass density (x2 = 0.4546): 1172.9 kg/m3
- mass density (x2 = 0.4666): 1172.2 kg/m3
- mass density (x2 = 0.4894): 1170.6 kg/m3
- mass density (x2 = 0.5017): 1170.9 kg/m3
- mass density (x2 = 0.5714): 1165.2 kg/m3
- mass density (x2 = 0.7021): 1150.7 kg/m3
- mass density (x2 = 0.7796): 1137 kg/m3
- mass density (x2 = 0.7924): 1134.4 kg/m3
- mass density (x2 = 0.8502): 1118.6 kg/m3
- mass density (x2 = 0.8516): 1118.1 kg/m3
- mass density (x2 = 0.8534): 1117.5 kg/m3
- mass density (x2 = 0.8549): 1116.9 kg/m3
- mass density (x2 = 0.8816): 1106.9 kg/m3
- mass density (x2 = 0.8825): 1106.5 kg/m3
- mass density (x2 = 0.8826): 1106.5 kg/m3
- mass density (x2 = 0.8856): 1105.2 kg/m3
- mass density (x2 = 0.9248): 1081.5 kg/m3
- mass density (x2 = 0.9253): 1081.2 kg/m3
- mass density (x2 = 0.9258): 1080.9 kg/m3
- mass density (x2 = 0.9267): 1080.3 kg/m3
- mass density (x2 = 0.9271): 1080.1 kg/m3
- mass density (x2 = 0.9314): 1077.8 kg/m3
- mass density (x2 = 0.9633): 1050.4 kg/m3
- mass density (x2 = 0.9634): 1050.3 kg/m3
- mass density (x2 = 0.9638): 1049.9 kg/m3
- mass density (x2 = 0.964): 1049.7 kg/m3
- mass density (x2 = 0.9641): 1049.5 kg/m3
- mass density (x2 = 0.9711): 1041.3 kg/m3
- mass density (x2 = 0.98): 1029.9 kg/m3
